Laboratory results reported in article PMC4336329 (PLoS ONE, 2015).
The whole screen tested about 310,000 compounds, of which about 2,200 (0.71%) showed an effect of 50% or more. The effect is printed as a negative number. This is one part of the list.

These compounds were tested against human ether-à-go-go-related gene (hERG) potassium channel (human, UniProt Q12809) (assay: primary screen, population patch clamp on CHO cells stably expressing hERG).
human ether-à-go-go-related gene (hERG) potassium channel, sequence (Q12809 whole entry, looked up): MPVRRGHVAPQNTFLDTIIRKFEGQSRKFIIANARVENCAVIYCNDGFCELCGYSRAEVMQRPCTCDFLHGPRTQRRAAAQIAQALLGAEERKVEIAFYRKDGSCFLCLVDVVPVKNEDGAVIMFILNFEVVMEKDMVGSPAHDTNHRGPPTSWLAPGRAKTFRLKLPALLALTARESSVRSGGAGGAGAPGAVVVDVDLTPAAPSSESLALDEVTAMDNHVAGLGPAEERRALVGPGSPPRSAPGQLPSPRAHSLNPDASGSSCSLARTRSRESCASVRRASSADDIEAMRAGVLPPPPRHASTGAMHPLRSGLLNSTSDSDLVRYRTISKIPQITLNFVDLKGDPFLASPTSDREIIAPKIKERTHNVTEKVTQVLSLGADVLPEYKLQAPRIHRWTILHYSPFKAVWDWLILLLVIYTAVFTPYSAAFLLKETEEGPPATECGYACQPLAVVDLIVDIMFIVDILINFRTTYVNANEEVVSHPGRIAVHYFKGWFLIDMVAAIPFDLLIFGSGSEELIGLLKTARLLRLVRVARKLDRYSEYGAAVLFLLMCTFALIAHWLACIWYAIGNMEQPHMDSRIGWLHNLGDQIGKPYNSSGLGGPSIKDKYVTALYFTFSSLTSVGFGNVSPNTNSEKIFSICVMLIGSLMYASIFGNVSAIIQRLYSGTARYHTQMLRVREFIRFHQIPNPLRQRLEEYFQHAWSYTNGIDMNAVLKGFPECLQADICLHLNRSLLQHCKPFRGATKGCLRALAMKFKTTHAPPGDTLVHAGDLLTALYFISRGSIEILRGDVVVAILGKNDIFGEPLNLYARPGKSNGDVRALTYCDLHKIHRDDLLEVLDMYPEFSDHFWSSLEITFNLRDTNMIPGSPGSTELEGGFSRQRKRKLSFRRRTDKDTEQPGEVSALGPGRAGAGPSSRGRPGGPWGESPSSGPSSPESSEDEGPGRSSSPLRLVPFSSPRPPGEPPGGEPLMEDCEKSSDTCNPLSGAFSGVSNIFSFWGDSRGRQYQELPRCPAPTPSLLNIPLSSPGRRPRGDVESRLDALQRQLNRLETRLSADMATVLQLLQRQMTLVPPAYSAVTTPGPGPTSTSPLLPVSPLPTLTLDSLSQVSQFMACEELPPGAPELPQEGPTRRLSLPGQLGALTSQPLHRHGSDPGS

Structure (SMILES)	hERG current change (%, negative = inhibition) at 1uM
Cc1nc(-c2cccc(S(=O)(=O)N3CCC(C)CC3)c2)cs1	17.4%
COc1ccc(NC(=S)N2CCC(Cc3ccccc3)CC2)cc1OC	-4.14%
COc1ccc([C@@H]2[C@@H]3C(=O)N(C(C)(C)C)C(=O)[C@@H]3[C@]3(Cc4ccc(Cl)cc4)C(=O)N(c4cccc(F)c4)C(=O)N23)cc1	10.2%
O=C(CC1Sc2ccccc2NC1=O)NCc1ccc(Cl)cc1 (stereo not drawn)	17.3%
C(=N\N(c1ccccc1)c1ccccc1)/c1ccc2c(c1)OCO2	11.2%
N/C(Cc1nc(-c2ccc(Cl)cc2)cs1)=N/O	9.97%
CCOc1ccc(N(CC(=O)NCc2ccc(F)cc2)C(=O)c2ccco2)cc1	-5.88%
CC1CCN(CC(=O)Nc2ccc(Br)cc2[N+](=O)[O-])CC1	11.7%
COc1cccc(C2C(C#N)=C(N)Oc3c2oc(CO)cc3=O)c1 (stereo not drawn)	14.1%
CC(NC(=O)Nc1ccccc1)c1ccccc1 (stereo not drawn)	-0.139%
CC(C)NC(=O)COC(=O)c1ccc(Cl)c(S(=O)(=O)N2CCCC2)c1	4.1%
Cc1ncc([N+](=O)[O-])n1CCOC(=O)Nc1ccc([N+](=O)[O-])cc1	10.8%
Cc1ccc(NC(=O)CNC(C)c2ccccc2)cc1.Cl (stereo not drawn)	11%
COc1ccc2nc3oc(C(=O)N4CC(C)CC(C)C4)cc3cc2c1 (stereo not drawn)	13.2%
CN(Cc1nc2ccc(F)cc2[nH]1)Cc1nc(CC2CC2)no1	6.9%
Cc1ccc(CN2CCC(c3nc4ccc(Cl)cc4[nH]3)CC2)cc1	-91.8%
C/C(CC(=O)Nc1ccc2c(c1)OCCO2)=N\NC(=O)c1ccc([N+](=O)[O-])cc1Cl	14%
O=C(c1ccco1)N1CCN(C(=O)c2cc(-c3ccc(F)cc3)no2)CC1	-18.9%
O=C(Nc1c(C(=O)N2CCCCC2)cnn1-c1ccccc1)c1ccco1	14%

Structure (SMILES)	hERG current change (%, negative = inhibition) at 1uM
CC1(C)CC(=O)C(C(C#Cc2ccccc2)C2=C(O)CC(C)(C)CC2=O)=C(O)C1	10.9%
Cc1ccc(NC(=O)CSc2nnc(Cc3csc(C)n3)o2)c(C)c1	18.2%
O=C(NCC(O)c1ccccc1)c1ccc(Cl)c(S(=O)(=O)N2CCCC2)c1 (stereo not drawn)	5.35%
CCOC(=O)CN1C(=O)S/C(=C\c2ccc3c(c2)OCO3)C1=O	9.64%
O=C(CSc1ccccn1)N1CCOCC1	7.13%
CC(C)(O)C#Cc1ccc(C(=O)NCCC(=O)O)s1	18%
O=C(NNC(=S)Nc1ccccc1)c1cccs1	8.82%
O=C(N/N=C1\C2CN3CCN(C2)CC1(c1ccccc1)C3)Nc1ccccc1	1.37%
Cc1ccc(N2CC(C(=O)N3CCN(C(=O)c4ccco4)CC3)CC2=O)cc1 (stereo not drawn)	-45.8%
CC(NC(=O)CCC(=O)c1ccccc1)c1ccc(F)cc1 (stereo not drawn)	-8.55%
Cc1ccccc1NC(=O)CSc1nnc(NC(=O)C2CC2)s1	10.8%
CCOC(=O)c1cc2cc(F)ccc2nc1C	8.26%
O=Cc1cn(CCC(=O)O)nc1-c1cccc2ccccc12	11.3%
N=C1C(c2ccccc2)=C(O)CN1Cc1ccco1	3.36%
O=[N+]([O-])c1cc([N+](=O)[O-])c2n[nH]c(-c3ccccc3)c2c1	13.5%
O=C(c1ccc(C(=O)N2CCOCC2)nc1)N1CCOCC1	15.9%
Cc1ccc(OCCn2cc(/C=C(\C#N)C(=O)NCC3CCCO3)c3ccccc32)cc1 (stereo not drawn)	7.74%
COc1cccc(/C(C)=N/NS(=O)(=O)c2ccc(Cl)cc2)c1	7.71%
COc1ccc2cc(/C=N/NC(=O)CSCc3ccc([N+](=O)[O-])cc3)c(Cl)nc2c1	10.9%

Structure (SMILES)	hERG current change (%, negative = inhibition) at 1uM
Cc1cccnc1NC(=O)C1CCN(S(=O)(=O)c2cccs2)CC1	11.7%
C=CCSc1nc2ccccc2n1S(=O)(=O)c1ccc(C)cc1	15.9%
CNc1nc(Nc2ccc(C)c(Cl)c2)nc(N)c1[N+](=O)[O-]	6.53%
C=CC1=C2C=C(C3CC3)N(CC3CC3)C=C2C(=O)C(C)(OC(=O)c2ccco2)C1=O (stereo not drawn)	2.58%
CC(=O)Nc1cc2c(cc1C(C)=O)OCCO2	8.39%
COc1ccc(NC(=O)Cn2c(=O)sc3ccccc32)c(OC)c1	9.15%
COc1ccccc1/C=C/C(=O)N1CCc2cc(OC)c(OC)cc2C1C (stereo not drawn)	13.2%
Cc1cccc(NC(=O)c2ccc(F)c(S(=O)(=O)NCc3ccco3)c2)c1	-11.9%
Cl.NC(=O)c1[nH]cnc1N	13.1%
CCS(=O)(=O)Nc1ccc(C(=O)c2ccccc2)cc1	-2.91%
O=C(O)CCCCCN1C(=O)CCC1=O	12.2%
CN(C(=O)COc1coc(CN2CCN(c3ccccc3)CC2)cc1=O)c1ccccc1	-2%
c1ccc(COCCCn2cc(-c3ccccc3)nn2)cc1	7.34%
Cc1cc(Oc2ccc(=O)n(C)n2)nc(SCCOc2ccccc2)n1	14.2%
Cc1cc(C(=O)CSc2nnnn2C)c(C)n1Cc1ccco1	22%
CC(C)(C)c1ccc(S(=O)(=O)N2CC(C(=O)O)Oc3ccc(Cl)cc32)cc1 (stereo not drawn)	9.68%
COc1cc(C(=O)NCc2nnc(SCC(=O)c3ccc(Cl)cc3)o2)cc(OC)c1OC	11.5%
CCOc1ccc(CC(=O)NCC2(N3CCCCC3)CCCCC2)cc1	1.57%
Cc1ccc(S(=O)(=O)N(C)CC(=O)OCC(=O)c2c(N)n(C)c(=O)n(C)c2=O)cc1	-3.67%
